Laboratory results from PubChem BioAssay AID463173 (ICCB-Longwood Screening Facility, Harvard Medical School, 2010).
Among all 52,000 compounds or so, about 1,700 (3.3%) were called active. Rule as the data show it: active = survival mostly below about 52% (no sharp cut-off); inactive = mostly above about 56%. Some of the results follow.

Each compound was assayed on Wild type (assay: growth inhibition of S. aureus wild type versus tarO mutant, primary screen, teichoic acid synthesis inhibitors, RN4220, OD600 (AID 463173)). Settings: S. aureus RN4220 wild type/DeltatarO growth, OD600, 18 h, active compounds read low, screened at 18.75 µg/mL (by protocol).

Compound | survival
CCOc1ccc(Nc2nc3c(S(=O)(=O)c4cccc(Cl)c4)nnn3c3ccsc23)cc1 | inactive: 98%
CC1=C(C(=O)Nc2ccccc2)C(c2ccc(C(=O)O)cc2)n2ncnc2N1 (stereo not given) | inactive: 47%
Cc1ccc(NC(=O)CCCn2c(=O)c3cccn3c3ccccc32)c(C)c1 | inactive: 68%
CCOC(=O)c1cnc2c(ccc3ccccc32)c1Nc1cccc(C(F)(F)F)c1 | inactive: 37%
CCc1noc(-c2ccc(NCc3ccccc3)c([N+](=O)[O-])c2)n1 | inactive: 78%
Cc1ccc(C(=O)NCC(c2ccc3c(c2)OCO3)N2CCN(C)CC2)cc1C (stereo not given) | inactive: 78%
COc1ccc(F)cc1S(=O)(=O)NCC(c1ccco1)S(=O)(=O)c1ccc(F)cc1 (stereo not given) | inactive: 45%
CCCn1c(=C(C#N)C#N)s/c(=C2\C=Cc3ccccc3N2CC)c1=O | inactive: 105%
CCOc1cc(C(=O)NCCc2csc3nc(-c4ccccc4F)nn23)cc(OCC)c1OCC | inactive: 87%
COc1ccc(Cn2c(C(=O)O)c(CNCCc3ccco3)c3ccc(C)cc32)cc1 | inactive: 87%
N=c1c(C(=O)NCC2CCCO2)cc2c(=O)n3ccccc3nc2n1CCCO (stereo not given) | inactive: 71%
Cc1ccccc1OCC(=O)Nc1ccccc1C(=O)OCc1cc(=O)n2ccsc2n1 | inactive: 133%
Cc1cc(C(F)F)n2nc(C(=O)Nc3cccc(Cl)c3C)nc2n1 | inactive: 79%
Cc1nn(CCCC(=O)NCCc2ccc(Cl)cc2)c(=O)c2c1sc1ccccc12 | inactive: 80%
O=C(Nc1ccc(-n2nncc2-c2ccccc2)cc1)c1cccc(F)c1 | inactive: 152%
Cn1ncc2c(NCc3ccccc3Cl)nc(NCCO)nc21 | inactive: 80%
COc1ccc2c(c1)c1c(c(=O)n(-c3ccccc3)c(=O)n1CC(=O)NCCC1=CCCCC1)n2C | inactive: 66%
CCOc1ccc(CNC(=O)C2CCN(S(=O)(=O)c3cn(C)cn3)CC2)cc1 | inactive: 80%
O=C(CN1C(=O)CCn2nc(-c3ccccc3)cc21)NCc1ccc(F)cc1 | inactive: 73%
N#CC1=C(N)N2C(=C(C#N)C13CCCC3)Nc1ccccc12 | inactive: 113%
Cn1nc(C(=O)NCc2cccc(Cl)c2)c2c1-c1ccccc1S(=O)(=O)C2 | inactive: 80%
CCC(OC(=O)CN1C(=O)c2ccccc2C1=O)C(=O)NC1CCCC1 (stereo not given) | inactive: 98%
CCOC(=O)Cn1c(=O)n(C2CCCCC2)c2nc(-c3ccc(CC)cc3)nc(C(N)=O)c21 | inactive: 82%

Compound | survival
Cc1cc(C)cc(NC(=O)Cn2c(=O)n(-c3cc(C)cc(C)c3)c(=O)c3oc4ccccc4c32)c1 | inactive: 83%
COc1cc(CN2CCc3nc(N4CCN(c5ncccn5)CC4)ncc3C2)cc(OC)c1OC | inactive: 73%
COc1ccc(-n2ccnc2SCC(=O)Nc2nnc(C)s2)cc1 | inactive: 124%
Cc1ccccc1N(C)S(=O)(=O)c1nnc(NC(=O)c2ccccc2F)s1 | inactive: 33%
COCCNc1c(-c2ccccc2)nc2cc(C)ccn12 | inactive: 105%
COc1cccc(Cn2c(CNC(=O)CCc3ccccc3)nc3cccnc32)c1 | inactive: 72%
Cc1ccc(NC(=O)C(=O)NCCc2sc(-c3ccc(Cl)cc3)nc2C)cc1C | inactive: 126%
COc1cccc(CNC(=O)CCn2nc(C)c3c(C)n(-c4ccccc4)nc3c2=O)c1 | inactive: 82%
CN(c1ccccc1)S(=O)(=O)c1nnc(NC(=O)C2CCCCC2)s1 | inactive: 87%
CC(C)(C)OC(=O)N1CCN(c2ccc(NC(=O)Cn3nnc(-c4ccccc4)n3)cc2)CC1 | inactive: 110%
Cc1c(Cl)cccc1NC(=O)CCS(=O)(=O)c1ccc2c(c1)oc(=O)n2C | inactive: 78%
CCOC(=O)c1c(C)c(C(=O)NCc2ccc(OC)cc2)c(C)n1CC | inactive: 94%
COc1ccc(NCc2cc3cc4c(cc3n(CC(=O)Nc3ccc(F)cc3)c2=O)OCCO4)cc1 | inactive: 77%
COc1cccc(C(=O)N(Cc2cccnc2)c2nc3c(OC)ccc(C)c3s2)c1OC | inactive: 69%
COc1ccc(C2(C(=O)NC(C)C)CCOCC2)cc1 | inactive: 88%
O=C(CSc1nc2ccccc2nc1Cc1ccc(Cl)cc1)N1CCCc2ccccc21 | inactive: 68%
CCOc1cc(C2CC(=O)Nc3cc4c(cc32)OCCO4)ccc1O (stereo not given) | inactive: 78%
COC(=O)C(C)Sc1nc2c(cnn2-c2ccc(F)cc2)c(=O)[nH]1 (stereo not given) | inactive: 89%
N#Cc1c(NC(=O)c2cccnc2)sc2c1CCCC2 | inactive: 108%
CCOc1ccccc1NS(=O)(=O)c1ccc2c(c1)CC(C)N2C(=O)C1CCC1 (stereo not given) | inactive: 74%
Cc1ccc(OCCn2c(CCNC(=O)C3CCCCC3)nc3ccccc32)cc1 | inactive: 65%
COc1cccc(C(=O)NCc2cn3ccccc3n2)c1 | inactive: 86%
